These are yes or no findings as the source states them, for the method shown. For some of these results: In cells and extracts the contact can be indirect. Some entries that bind do so weakly or less than the wild type. For some of these results: Where a sequence is shown, tags or fusion partners need not be part of it.

Protein sequences, listed by entry. Tags and fused reporters are not part of them. Lines headed by an entry give the natural chain unless they say otherwise; changes in a name come on top. Chains listed by the source or under a name are the forms on record and can include a tag or linker. Residues count along the entry.
UniProt P12520: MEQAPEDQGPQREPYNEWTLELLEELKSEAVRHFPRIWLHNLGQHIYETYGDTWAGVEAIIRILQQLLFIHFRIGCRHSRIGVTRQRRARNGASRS
Vpr(51–96) fragment (HIV-1 (pNL4–3)): residues 51-96 of P12520
Vpr(75–96) fragment (HIV-1 (pNL4–3)): residues 75-96 of P12520
UniProt Q9Y4B6: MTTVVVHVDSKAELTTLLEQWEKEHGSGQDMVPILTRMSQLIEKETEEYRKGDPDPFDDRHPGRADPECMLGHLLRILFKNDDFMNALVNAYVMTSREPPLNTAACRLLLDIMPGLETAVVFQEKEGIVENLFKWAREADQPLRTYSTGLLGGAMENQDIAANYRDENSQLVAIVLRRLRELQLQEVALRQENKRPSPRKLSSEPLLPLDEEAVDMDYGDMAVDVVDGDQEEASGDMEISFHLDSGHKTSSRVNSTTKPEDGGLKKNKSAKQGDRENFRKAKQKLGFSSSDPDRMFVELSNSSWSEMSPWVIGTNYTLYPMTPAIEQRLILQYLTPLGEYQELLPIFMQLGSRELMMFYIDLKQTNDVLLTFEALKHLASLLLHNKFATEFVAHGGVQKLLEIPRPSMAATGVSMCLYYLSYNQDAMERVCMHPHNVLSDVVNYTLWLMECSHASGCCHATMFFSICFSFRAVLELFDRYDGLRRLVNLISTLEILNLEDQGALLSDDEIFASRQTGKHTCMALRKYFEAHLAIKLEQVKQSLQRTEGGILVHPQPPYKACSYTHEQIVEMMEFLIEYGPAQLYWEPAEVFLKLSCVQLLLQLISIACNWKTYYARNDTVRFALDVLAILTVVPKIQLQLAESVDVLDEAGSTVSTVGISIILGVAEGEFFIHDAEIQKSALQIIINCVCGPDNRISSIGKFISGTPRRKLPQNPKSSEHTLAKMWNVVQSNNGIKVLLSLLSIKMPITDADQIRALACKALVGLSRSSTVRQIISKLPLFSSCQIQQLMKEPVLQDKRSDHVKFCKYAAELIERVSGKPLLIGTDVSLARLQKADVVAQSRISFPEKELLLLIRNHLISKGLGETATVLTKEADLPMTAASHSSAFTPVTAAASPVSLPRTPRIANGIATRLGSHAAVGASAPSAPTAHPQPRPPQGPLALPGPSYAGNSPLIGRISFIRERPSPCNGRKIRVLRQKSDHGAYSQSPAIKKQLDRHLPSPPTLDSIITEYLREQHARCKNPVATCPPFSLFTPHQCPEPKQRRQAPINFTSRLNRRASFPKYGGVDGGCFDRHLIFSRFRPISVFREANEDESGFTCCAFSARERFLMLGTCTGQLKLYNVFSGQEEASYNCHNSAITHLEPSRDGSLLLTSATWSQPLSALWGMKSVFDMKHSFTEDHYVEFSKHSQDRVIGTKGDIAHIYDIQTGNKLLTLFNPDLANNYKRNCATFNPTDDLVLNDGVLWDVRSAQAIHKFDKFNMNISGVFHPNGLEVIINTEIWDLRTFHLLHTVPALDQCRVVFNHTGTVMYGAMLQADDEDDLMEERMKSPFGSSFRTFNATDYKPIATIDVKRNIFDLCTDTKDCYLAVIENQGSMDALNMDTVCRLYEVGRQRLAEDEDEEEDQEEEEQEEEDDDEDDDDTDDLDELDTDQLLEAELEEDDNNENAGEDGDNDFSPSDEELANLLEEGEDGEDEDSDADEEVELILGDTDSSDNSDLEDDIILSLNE
VprBP WD40-AR(1057–1507): residues 1057-1507 of Q9Y4B6
VprBP AR (residues 1401–1507): residues 1401-1507 of Q9Y4B6
VprBP(1401–1450): residues 1401-1450 of Q9Y4B6
His-MBP-fused VprBP(1446–1507): residues 1446-1507 of Q9Y4B6
UniProt Q16531: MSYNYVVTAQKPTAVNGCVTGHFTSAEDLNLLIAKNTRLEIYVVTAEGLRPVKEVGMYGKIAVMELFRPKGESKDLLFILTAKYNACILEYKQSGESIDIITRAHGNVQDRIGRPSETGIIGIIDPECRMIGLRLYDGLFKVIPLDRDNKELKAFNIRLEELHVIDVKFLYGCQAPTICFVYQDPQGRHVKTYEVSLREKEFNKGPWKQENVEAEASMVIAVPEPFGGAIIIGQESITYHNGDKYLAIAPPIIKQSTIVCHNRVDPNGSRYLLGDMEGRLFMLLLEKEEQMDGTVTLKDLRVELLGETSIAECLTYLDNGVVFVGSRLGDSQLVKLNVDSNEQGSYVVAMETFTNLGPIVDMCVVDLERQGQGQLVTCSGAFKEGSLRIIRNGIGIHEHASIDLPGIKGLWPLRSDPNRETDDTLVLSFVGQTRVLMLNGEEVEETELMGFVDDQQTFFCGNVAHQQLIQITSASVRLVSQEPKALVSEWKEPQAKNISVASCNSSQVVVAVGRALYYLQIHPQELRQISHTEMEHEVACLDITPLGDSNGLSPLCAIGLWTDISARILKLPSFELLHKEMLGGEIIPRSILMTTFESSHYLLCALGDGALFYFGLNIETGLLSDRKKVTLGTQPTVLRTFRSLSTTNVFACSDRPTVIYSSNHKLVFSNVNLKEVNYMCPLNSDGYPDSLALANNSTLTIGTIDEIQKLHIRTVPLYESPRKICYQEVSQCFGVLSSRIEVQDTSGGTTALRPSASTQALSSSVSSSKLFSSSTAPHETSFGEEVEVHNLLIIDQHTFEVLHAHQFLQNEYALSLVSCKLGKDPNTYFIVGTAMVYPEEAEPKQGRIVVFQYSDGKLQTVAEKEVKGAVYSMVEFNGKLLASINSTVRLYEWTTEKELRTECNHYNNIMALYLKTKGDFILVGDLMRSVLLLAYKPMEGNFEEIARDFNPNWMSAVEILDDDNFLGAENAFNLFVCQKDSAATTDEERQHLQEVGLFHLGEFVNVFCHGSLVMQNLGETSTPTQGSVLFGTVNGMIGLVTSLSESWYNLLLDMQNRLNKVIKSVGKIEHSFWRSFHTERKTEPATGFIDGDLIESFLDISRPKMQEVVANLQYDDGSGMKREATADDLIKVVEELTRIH

Assay [1] deals with T1, full-length Plk4 (transfected) (UniProt O00444).
T1 sequence: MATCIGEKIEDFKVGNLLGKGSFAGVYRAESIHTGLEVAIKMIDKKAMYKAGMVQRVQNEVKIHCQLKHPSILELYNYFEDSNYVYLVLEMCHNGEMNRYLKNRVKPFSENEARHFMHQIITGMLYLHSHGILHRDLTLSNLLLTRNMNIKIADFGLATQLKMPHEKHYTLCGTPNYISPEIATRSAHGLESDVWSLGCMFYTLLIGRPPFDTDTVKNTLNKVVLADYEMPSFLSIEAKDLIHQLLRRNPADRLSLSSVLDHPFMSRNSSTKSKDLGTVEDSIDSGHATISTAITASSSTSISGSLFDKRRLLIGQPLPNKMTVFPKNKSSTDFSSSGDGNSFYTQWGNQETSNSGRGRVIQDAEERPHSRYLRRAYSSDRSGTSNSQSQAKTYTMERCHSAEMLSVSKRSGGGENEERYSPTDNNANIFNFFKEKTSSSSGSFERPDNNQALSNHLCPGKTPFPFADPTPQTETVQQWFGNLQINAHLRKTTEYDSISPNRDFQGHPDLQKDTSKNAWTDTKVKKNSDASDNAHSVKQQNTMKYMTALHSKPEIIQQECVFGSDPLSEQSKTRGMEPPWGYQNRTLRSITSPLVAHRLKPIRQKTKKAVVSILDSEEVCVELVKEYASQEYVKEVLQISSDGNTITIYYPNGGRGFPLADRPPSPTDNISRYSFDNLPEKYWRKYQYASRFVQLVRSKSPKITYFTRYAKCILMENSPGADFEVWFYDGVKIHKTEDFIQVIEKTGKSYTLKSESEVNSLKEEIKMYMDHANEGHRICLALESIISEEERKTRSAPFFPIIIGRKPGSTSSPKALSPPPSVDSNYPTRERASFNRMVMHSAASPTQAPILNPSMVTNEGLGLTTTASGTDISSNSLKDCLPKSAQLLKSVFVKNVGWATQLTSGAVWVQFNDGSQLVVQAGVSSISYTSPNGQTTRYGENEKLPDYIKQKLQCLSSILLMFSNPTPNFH
Briefly: co-IP; HEK293T cells transfected with the indicated constructs; TBSN buffer (20 mM Tris-HCl pH 8.0, 120 mM NaCl, 0.5% Nonidet P-40, 5 mM EGTA, 1.5 mM EDTA, 2 mM DTT); immunoblot; thymidine- or nocodazole-treated cells in Supplementary Fig. 2b; with or without co-expressed Vpr or VprBP in Fig. 3b-d and Supplementary Fig. 3a-d.

The target of assay [2] is Plk4 CPB (co-IP construct) (UniProt O00444). Described as above.
Assay [3] has as its target Plk4 CTD (co-IP construct) (UniProt O00444). Described as above.
The target in assay [4] is HIV-1 Vpr (pNL4–3), transfected (HIV-1 (pNL4–3)) (UniProt P12520). The assay is described as above.
In assay [5] the target is Vpr(51–96) fragment (HIV-1 (pNL4–3)) (UniProt P12520). The assay is described as above.
Assay [6] deals with Vpr(75–96) fragment (HIV-1 (pNL4–3)) (UniProt P12520). The assay is described as above.
In assay [7] the target is VprBP AR (residues 1401–1507) (UniProt Q9Y4B6). The description is as above.
The next assay addresses VprBP(1401–1450) (UniProt Q9Y4B6). The assay is described as above.
The target of assay [8] is VprBP(1446–1507) (co-IP construct) (UniProt Q9Y4B6). Described as above.
Assay [9] concerns the target mGFP-STREP-TEV-fused Vpr (HIV-1 (pNL4–3)) (UniProt P12520). The description is as above.
The target in assay [10] is His-MBP-fused VprBP(1446–1507) (UniProt Q9Y4B6). Briefly: SEC; SEC profile and Coomassie-stained SDS-PAGE of MBP-VprBP(1446–1507) and CPB(581–808); both purified. (In general: In gel filtration, larger molecules generally elute earlier.)
For a further assay, the target named is VprBP WD40-AR(1057–1507) (UniProt Q9Y4B6). In words: SEC; purified Vpr, VprBP(1057–1507), Plk4 CPB(581–808) and DDB1; HisTrap eluate of VprBP and Vpr digested with TEV, mixed with Plk4 CPB; SEC in 20 mM Tris-HCl pH 7.5, 100 mM NaCl, 10% glycerol; stoichiometry estimated from Coomassie-stained protein intensity; both purified.

Turning to “DDB1 (co-IP with full-length Plk4) (from UniProt Q16531 1-1140)”, in assay [1], the binding entry was “binds”.

For “full-length VprBP (transfected) (from UniProt Q9Y4B6 1-1507)”, the binding result in assay [2], in assay [3] and in assay [1] was “binds” each time.

B1: full-length Plk4 (transfected) (protein, UniProt O00444 1-970)
chain: T1 sequence
Take B1: the binding result in assay [4] is on record as “binds”; in assay [5] it was “binds weakly”; in assay [6], “binds weakly”; in assay [7] it was “binds”; with VprBP(1401–1450), “no binding”; in assay [8], “binds”. In assay [9], the binding entry is given as “binds”.

B2: Plk4 CPB(581–808) (co-expressed with His-MBP-VprBP(1446–1507)) (domain or fragment, UniProt O00444 581-808)
chain: GYQNRTLRSITSPLVAHRLKPIRQKTKKAVVSILDSEEVCVELVKEYASQEYVKEVLQISSDGNTITIYYPNGGRGFPLADRPPSPTDNISRYSFDNLPEKYWRKYQYASRFVQLVRSKSPKITYFTRYAKCILMENSPGADFEVWFYDGVKIHKTEDFIQVIEKTGKSYTLKSESEVNSLKEEIKMYMDHANEGHRICLALESIISEEERKTRSAPFFPIIIGRKPG
B2: the binding result in assay [10] is recorded as “binds”.

B3: Plk4 CPB(581–808), purified (domain or fragment, UniProt O00444 581-808, looked up)
chain: B2 chain
notes: Plk4 cryptic polo-box, residues 581–808; Two copies for each Vpr•VprBP in the SEC complex; The construct has a TEV site
Consider B3, for which the binding entry with VprBP WD40-AR(1057–1507) is on record as “binds”.

Values taken from paper PMC10462243 (Research Square, 2023).
